Experimental data: PMC4174998 (Journal of Medicinal Chemistry, 2014)

What was measured:
human RBP4 = human RBP4 (Homo sapiens, UniProt P02753); type: binding
[1] = target: retinol-dependent RBP4-TTR interaction (Homo sapiens, UniProt P02753); experiment: HTRF assay for antagonists of retinol-induced RBP4-TTR interaction; type: biochemical; conditions: (S)-isomer versus its (R)-congener
in vivo = conditions: male, Sprague Dawley, rat, plasma, po, 5 mg/kg
[2] = rat, urine 0–48 h after iv administration
hERG channel = hERG channel (Homo sapiens, UniProt Q12809); experiment: Off-target activity at hERG
Sequence of UniProt Q12809 (Q12809 whole entry): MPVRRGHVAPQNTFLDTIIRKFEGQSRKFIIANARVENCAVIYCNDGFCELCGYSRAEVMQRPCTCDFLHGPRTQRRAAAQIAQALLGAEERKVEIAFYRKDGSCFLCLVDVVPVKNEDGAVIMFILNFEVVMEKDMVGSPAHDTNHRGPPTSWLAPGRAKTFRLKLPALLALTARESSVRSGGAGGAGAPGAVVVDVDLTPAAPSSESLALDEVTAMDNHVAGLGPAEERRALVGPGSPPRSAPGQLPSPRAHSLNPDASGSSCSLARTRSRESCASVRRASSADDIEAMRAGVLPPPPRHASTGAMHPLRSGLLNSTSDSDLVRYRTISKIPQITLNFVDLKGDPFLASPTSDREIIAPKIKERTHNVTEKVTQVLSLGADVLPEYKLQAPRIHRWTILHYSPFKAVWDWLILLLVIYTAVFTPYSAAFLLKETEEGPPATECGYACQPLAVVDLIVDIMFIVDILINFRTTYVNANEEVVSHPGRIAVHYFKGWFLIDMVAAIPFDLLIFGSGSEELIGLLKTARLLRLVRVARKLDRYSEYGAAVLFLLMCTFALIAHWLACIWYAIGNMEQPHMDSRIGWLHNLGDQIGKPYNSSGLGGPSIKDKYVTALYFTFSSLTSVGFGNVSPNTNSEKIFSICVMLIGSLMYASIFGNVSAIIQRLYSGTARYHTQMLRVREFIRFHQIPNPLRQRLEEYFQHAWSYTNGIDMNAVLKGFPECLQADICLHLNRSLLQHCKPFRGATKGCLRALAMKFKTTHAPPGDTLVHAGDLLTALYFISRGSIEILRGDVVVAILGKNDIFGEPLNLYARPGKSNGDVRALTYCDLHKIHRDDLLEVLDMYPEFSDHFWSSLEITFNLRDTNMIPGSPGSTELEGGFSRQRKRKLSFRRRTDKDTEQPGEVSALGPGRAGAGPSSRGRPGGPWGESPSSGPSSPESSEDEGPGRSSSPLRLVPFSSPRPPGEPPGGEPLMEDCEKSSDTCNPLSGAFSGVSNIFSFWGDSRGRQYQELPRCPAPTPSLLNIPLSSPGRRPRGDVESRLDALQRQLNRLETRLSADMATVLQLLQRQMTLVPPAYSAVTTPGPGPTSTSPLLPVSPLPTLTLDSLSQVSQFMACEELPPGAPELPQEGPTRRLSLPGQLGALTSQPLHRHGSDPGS

plasma RBP4 = plasma RBP4 (Rattus norvegicus, UniProt P04916); experiment: Plasma RBP4 lowering in rats; type: in vivo
serum RBP4 [3] = conditions: Abca4–/– mouse, chronic administration; cited from earlier work
lipofuscin bisretinoids = conditions: cited from earlier work
visual cycle retinoids = conditions: Abca4–/– mouse, chronic administration; cited from earlier work
serum RBP4 [4] = conditions: extended clinical studies; cited from earlier work
[5] = Liver microsomal stability across multiple species; type: in vitro ADME

CN(CCOc1ccccc1C(F)(F)F)C(=O)Nc1ccccc1C(=O)O [Compound 20, 2-(3-Methyl-3-(2-(2-(trifluoromethyl)phenoxy)ethyl)ureido)benzoic Acid]
less potent than A1120 (human RBP4): ~100 fold

O=C(O)[C@@H](NC(=O)N1C[C@H]2C[C@@H](c3ccccc3C(F)(F)F)C[C@H]2C1)c1ccccc1 [Compound (S)-61, (S)-2-Phenyl-2-((3aR,5S,6aS)-5-(2-(Trifluoromethyl)phenyl)octahydrocyclopenta[c]pyrrole-2-carboxamido)acetic Acid]
eudismic ratio, SPA assay (human RBP4; (S)-isomer versus its (R)-congener): ~10 | eudismic ratio, HTRF assay [1]: ~10

O=C(O)c1ccccc1NC(=O)N1C[C@H]2C[C@@H](c3ccccc3C(F)(F)F)C[C@H]2C1 [Compound 43, 2-((3aR,5r,6aS)-5-(2-(Trifluoromethyl)phenyl)octahydrocyclopenta[c]pyrrole-2-carboxamido)benzoic Acid]
AUC(0-inf) (in vivo): 43900 ng·h/mL | AUC(0-t) (in vivo): 43600 ng·h/mL | Cmax (in vivo): 3950 ng/mL | Tmax (in vivo): 2.9 h | bioavailability (in vivo): 31% | half-life (in vivo): 6.2 h | unchanged compound in urine [2]: No unchanged 43 was quantifiable | off-target activity at the hERG channel (hERG channel): no significant off-target activity | reduction in plasma RBP4 (plasma RBP4; 7-day oral administration at 5 mg/kg): approximately 60% | decrease in plasma RBP4 (plasma RBP4; single 5 mg/kg oral dose): 30–50%

O=C(O)c1ccccc1NC(=O)N1CCC(c2ccccc2C(F)(F)F)CC1 [Compound 3, 2-(4-(2-(trifluoromethyl)phenyl)piperidine-1-carboxamido)benzoic acid]
reduction in serum RBP4 (serum RBP4 [3]): 75% | reduction of accumulation of lipofuscin bisretinoids (lipofuscin bisretinoids; Abca4–/– mouse, chronic administration): approximately 50% | reduction in certain visual cycle retinoids (visual cycle retinoids): 30–50%

O=C(O)c1cccnc1NC(=O)N1C[C@H]2C[C@@H](c3ccccc3C(F)(F)F)C[C@H]2C1 [Compound 54, 2-((3aR,5R,6aS)-5-(2-(Trifluoromethyl)phenyl)octahydrocyclopenta[c]pyrrole-2-carboxamido)nicotinic Acid]
RBP4 activity (human RBP4): essentially devoid of activity

CC1=C(/C=C/C(C)=C/C=C/C(C)=C/C(=O)Nc2ccc(O)cc2)C(C)(C)CCC1 [fenretinide]
serum RBP4 in AMD patients (serum RBP4 [4]): reduce serum RBP4 | accumulation of lipofuscin bisretinoids (lipofuscin bisretinoids; Abca4–/– mouse model, ref 13a): significantly reduced accumulation of lipofuscin bisretinoids

C[C@H](NC(=O)N1C[C@H]2C[C@@H](c3ccccc3C(F)(F)F)C[C@H]2C1)C(=O)O [Compound (S)-59, (S)-2-((3aR,5S,6aS)-5-(2-(Trifluoromethyl)phenyl)octahydrocyclopenta[c]pyrrole-2-carboxamido)propanoic Acid]
eudismic ratio, HTRF assay [1]: ~1.7

CN(CCOc1ccccc1C(C)(C)C)C(=O)Nc1ccccc1C(=O)O [Compound 25, 2-(3-(2-(2-(tert-Butyl)phenoxy)ethyl)-3-methylureido)benzoic Acid]
liver microsomal stability across multiple species [5]: poor liver microsomal stability across multiple species
